Assay results taken from the supplement of paper PMC3334620.
In all, about 33,000 sequences were measured (“E-score (-0.5 to 0.5)”: median about -0.017, highest 2% from about 0.3 on). The list shows a part of the results.

target: T1, Sut1 (UniProt P53032); assay: PBM E-score (8-mer binding enrichment) (E-score (-0.5 to 0.5)); higher = stronger / more preferred TF binding; most listed sequences are background and not binding sites; details: protein concentration: 200 nM; construct: GST-full length
T1 sequence: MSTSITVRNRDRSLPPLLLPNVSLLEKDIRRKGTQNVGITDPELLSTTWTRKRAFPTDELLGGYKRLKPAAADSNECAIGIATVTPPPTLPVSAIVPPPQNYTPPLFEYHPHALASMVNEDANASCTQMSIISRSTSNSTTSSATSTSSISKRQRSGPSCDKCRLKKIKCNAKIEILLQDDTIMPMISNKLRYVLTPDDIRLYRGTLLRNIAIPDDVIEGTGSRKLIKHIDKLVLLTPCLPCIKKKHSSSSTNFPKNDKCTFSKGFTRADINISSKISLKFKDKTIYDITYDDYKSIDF
How it was run: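 Detection of bound protein used fluorescent anti-GST, with scans normalised by masliner. The proteins were GST-tagged yeast transcription factors applied at about 100-200 nM to universal all-10-mer Agilent arrays made double-stranded by primer extension. Each ungapped eight-base word, pooled with its reverse complement, was scored with an E-score from the Universal PBM Analysis Suite.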

| Sequence | PBM E-score |
| --- | --- |
| CCGAATAA | 0.268 |
| ACGGTGTG | -0.237 |
| ACATTTTG | 0.103 |
| TCCTCAGA | 0.0862 |
| CGCGCAAG | 0.00201 |
| CAACAACC | 0.119 |
| CGAGCCAC | -0.287 |
| CCTCTGAC | -0.203 |
| CTAAGTTA | 0.126 |
| AAGATCAT | 0.0744 |
| AACAGAGC | -0.14 |
| CTGCGAAG | -0.221 |
| ATAGACGC | 0.0447 |
| ATCAGGAA | -0.137 |
| CCGCTGCA | -0.11 |
| CTGTGACA | -0.208 |
| AACATCTG | -0.0906 |
| GGCACCCC | -0.286 |
| AGCCGAGA | -0.0181 |
| ATGCCCCA | -0.0978 |
| CGACTAGC | 0.05 |
| AGACACGG | -0.0756 |
| CTGTCTTA | -0.0519 |
| CAAGGAGG | -0.0941 |
| TCGGGAGA | -0.0164 |

| Sequence | PBM E-score |
| --- | --- |
| AATCTTCT | 0.0431 |
| AGAATCCG | 0.00193 |
| GAGCGTGC | -0.109 |
| ATATTTGC | 0.138 |
| AGCAGATC | -0.00869 |
| ATCGCAGG | -0.198 |
| GGATTCTA | 0.0493 |
| GGATGTAA | 0.108 |
| ATTGAGAC | -0.0256 |
| CACTTTAG | -0.0413 |
| ATCTGTTC | 0.0938 |
| CTCGTAGC | -0.133 |
| AGACGCAA | 0.0523 |
| CGGGCGAG | -0.104 |
| ATCGCCTG | -0.191 |
| AAATAACG | 0.129 |
| GCAGAGGC | -0.286 |
| GGGCAGAA | -0.0139 |
| CATATCTA | 0.152 |
| TGTGCAAA | -0.126 |
| CGTCTTAC | -0.00247 |
| CCCTTACG | -0.249 |
| CCGAAATC | 0.232 |
| AGCGGGTA | -0.167 |
| GGCTCAAC | -0.256 |

| Sequence | PBM E-score |
| --- | --- |
| CATGCCCC | -0.254 |
| TGTTGGAA | 0.063 |
| CGTCTCCC | 0.0386 |
| AACACGCA | 0.122 |
| AGTACAAT | 0.193 |
| GCATGCGC | -0.121 |
| AGACTTGA | 0.0388 |
| ACTACAGC | -0.0548 |
| CCACGAGG | -0.154 |
| AAATATAA | 0.273 |
| CTGTCCAC | -0.19 |
| GGTGGGGA | -0.0484 |
| AAACTGTA | 0.062 |
| ACAATTTG | 0.0489 |
| AAACGGCG | 0.0378 |
| CACTAAAC | 0.139 |
| AGTGTAAT | 0.137 |
| CCGGGCGA | 0.0467 |
| AAGCAGGG | -0.206 |
| GCATAATA | 0.265 |
| AGGACGGA | 0.0778 |
| AGCGTCGC | -0.0164 |
| ATGACACG | 0.129 |
| AAACCGAG | 0.0662 |
| AGGGCAAA | -0.079 |

| Sequence | PBM E-score |
| --- | --- |
| ATGTGTTC | 0.0971 |
| GCGCAAAC | -0.0496 |
| GCTGCAAC | -0.0226 |
| AGCGAGGA | -0.0182 |
| CCGGGCGC | -0.01 |
| CATACGGA | 0.303 |
| CATGAAAG | 0.0767 |
| CACATGAG | -0.239 |
| ATGCCCGC | -0.0337 |
| ACTTAAAC | 0.241 |
| TAGACGCA | 0.00598 |
| CGAGCGCA | -0.0152 |
| CAACTACC | -0.0109 |
| GCCAGCAC | -0.0518 |
| GTTAGGAA | 0.14 |
| TCGACGAA | -0.0884 |
| CGCACCCG | -0.201 |
| TCCGGAAA | 0.411 |
| ACTATCTC | 0.0966 |
| CGTATGTC | -0.0263 |
| AAGTTAAC | 0.142 |
| CAACTCTC | 0.0111 |
| CCAATCCC | -0.0503 |
| ACCAGTCA | -0.101 |
| CACCATAC | -0.135 |

| Sequence | PBM E-score |
| --- | --- |
| GTTGACGA | -0.00109 |
| ATAAATTA | 0.326 |
| GTTTCTAA | 0.132 |
| CAGTGCAA | -0.063 |
| GTTTACTA | 0.0744 |
| GGCGTTTA | -0.128 |
| TACACCCA | 0.036 |
| CAAATTTG | -0.0607 |
| ATGTTGAC | 0.0309 |
| CAGGGGGA | -0.351 |
| GAGTCTAC | -0.00601 |
| TTAATGAA | 0.26 |
| CTATCAAC | 0.208 |
| GCTTCCCA | -0.179 |
| AAAGCTTC | -0.0109 |
| ATATCGAT | -0.0127 |
| CTATGCTA | 0.0296 |
| GGACATCC | 0.0309 |
| CCTACACG | -0.346 |
| CCTTGCGC | -0.163 |
| CCAAAGGG | -0.121 |
| ACAGCAGA | -0.172 |
| ACACTGTC | -0.206 |
| ACGAAGAT | 0.0518 |
| ACATCTTA | 0.0365 |

| Sequence | PBM E-score |
| --- | --- |
| AATTTCAC | 0.188 |
| ACTCGTCT | 0.0453 |
| GCGGAGCA | 0.152 |
| AAGCACTC | 0.0626 |
| CGCATAGC | -0.188 |
| AAGGTCAG | -0.175 |
| AGTCCGCG | 0.435 |
| CGAGGGAA | -0.175 |
| CTATTGGC | -0.227 |
| GGGAACAA | 0.0455 |
| GAGTGAGC | -0.0108 |
| TCGGGGAA | 0.168 |
| CCCACGAC | -0.236 |
| CCAACTCC | 0.387 |
| AATTGAGC | 0.0759 |
| CGGGTTAG | -0.125 |
| AAGGCTAG | 0.0543 |
| ACCCTGTA | -0.14 |
| CGTTGGCC | -0.239 |
| ATCATGTC | 0.103 |
| ATAATAGG | 0.0771 |
| ACTGTACT | 0.029 |
| CAGAGGGG | -0.339 |
| CTCTATTA | 0.11 |
| CGTTACAG | -0.132 |

| Sequence | PBM E-score |
| --- | --- |
| AGGGTTCA | -0.146 |
| GTTACACA | -0.2 |
| ATCGTTAA | 0.17 |
| CTATTTTA | 0.249 |
| GTAATGTA | 0.116 |
| CCTGGTAC | -0.0792 |
| AGTGGTCC | 0.0454 |
| CCAACAAG | -0.0968 |
| ATGTTTTG | 0.0309 |
| CAGTACGG | -0.0271 |
| AGGCTACC | -0.244 |
| CGCTATAC | -0.0585 |
| GCTTGCCC | -0.291 |
| GCGTCAGC | -0.0582 |
| GTACCGTA | 0.0369 |
| ACTGACCT | -0.159 |
| CAAACGTA | 0.00159 |
| CTCTATCA | 0.0296 |
| GATTGGGC | -0.0149 |
| GGAAAACA | 0.164 |
| CGATAAAC | -0.077 |
| GTCTCAGA | -0.0872 |
